Measured values from PMC4336329 (PLoS ONE, 2015).
The whole screen tested about 310,000 compounds, of which about 14,000 (4.5%) showed an effect of 50% or more. Effects have a minus sign here. The list shows a part of the results.

Target: human ether-à-go-go-related gene (hERG) potassium channel (human, UniProt Q12809)
Assay: primary screen, population patch clamp on CHO cells stably expressing hERG
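Also: peak tail current of the secondary pulse compared with the same well before compound.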

Chain of human ether-à-go-go-related gene (hERG) potassium channel (Q12809 whole entry, looked up): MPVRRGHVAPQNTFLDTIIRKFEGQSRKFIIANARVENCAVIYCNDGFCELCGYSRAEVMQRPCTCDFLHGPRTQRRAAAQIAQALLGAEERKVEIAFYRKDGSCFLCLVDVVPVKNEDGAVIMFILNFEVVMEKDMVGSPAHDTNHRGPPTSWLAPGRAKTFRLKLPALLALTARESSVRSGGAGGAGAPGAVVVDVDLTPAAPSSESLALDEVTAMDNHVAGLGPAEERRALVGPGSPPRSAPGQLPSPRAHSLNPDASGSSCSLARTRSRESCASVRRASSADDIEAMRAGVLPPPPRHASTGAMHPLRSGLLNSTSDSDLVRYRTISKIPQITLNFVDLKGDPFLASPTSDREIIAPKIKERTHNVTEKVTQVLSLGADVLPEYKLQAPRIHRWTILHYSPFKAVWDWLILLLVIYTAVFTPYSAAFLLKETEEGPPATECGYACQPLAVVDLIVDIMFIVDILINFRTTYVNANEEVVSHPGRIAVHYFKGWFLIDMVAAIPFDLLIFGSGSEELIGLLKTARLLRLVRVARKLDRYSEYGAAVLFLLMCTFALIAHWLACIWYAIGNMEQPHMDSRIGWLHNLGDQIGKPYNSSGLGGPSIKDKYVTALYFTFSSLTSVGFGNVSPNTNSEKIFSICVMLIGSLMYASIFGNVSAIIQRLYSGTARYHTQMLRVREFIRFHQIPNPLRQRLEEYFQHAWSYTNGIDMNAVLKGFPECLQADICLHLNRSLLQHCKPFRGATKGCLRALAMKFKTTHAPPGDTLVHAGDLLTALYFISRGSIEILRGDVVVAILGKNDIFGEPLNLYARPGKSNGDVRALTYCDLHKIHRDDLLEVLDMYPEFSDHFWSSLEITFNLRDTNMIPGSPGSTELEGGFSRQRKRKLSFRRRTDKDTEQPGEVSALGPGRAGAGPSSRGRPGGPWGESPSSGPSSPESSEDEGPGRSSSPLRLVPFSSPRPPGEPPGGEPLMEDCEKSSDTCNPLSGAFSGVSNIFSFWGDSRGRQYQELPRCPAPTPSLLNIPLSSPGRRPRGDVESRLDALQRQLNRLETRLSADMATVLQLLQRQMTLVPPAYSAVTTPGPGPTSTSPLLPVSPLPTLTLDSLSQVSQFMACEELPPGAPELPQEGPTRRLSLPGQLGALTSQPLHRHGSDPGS

SMILES	hERG current change (%, negative = inhibition) at 10uM
COc1ccc(/C=N/NC(=O)CCOc2ccccc2C)cc1OC	-4.93%
CC(Sc1ccccn1)C(=O)Nc1ccc2c(c1)OCCO2 (centres unmarked)	-8.95%
O=C(CN(C(=O)c1csnn1)c1cccc(Cl)c1)NC1CCCCC1	2.46%
Cc1ccccc1-c1nnc(SCC(=O)N(C)c2c(N)n(Cc3ccccc3)c(=O)[nH]c2=O)n1C	11.8%
COc1cc(/C=C/C(=O)O)cc(S(=O)(=O)N2CCc3ccccc32)c1OC	2.32%
O=C1NCCN/C1=C\C(=O)c1ccccc1	-3.43%
S=C(Nc1cccc(Cl)c1Cl)Nn1cnnc1	36.1%
CCC(Oc1ccc(C)c(C)c1)C(=O)O (centres unmarked)	-0.808%
COc1ccc(C(=O)Oc2c(C)occc2=O)cc1OC	9.93%
CCn1c(SCc2cccc(C)c2)nnc1-c1ccccc1	-32.9%
CCCCc1nc2cc(C(=O)N3CCNC(=O)C3)ccc2o1	17.5%
CCn1c(SCC(=O)N/N=C/c2ccncc2)nc2ccccc21	-13.3%
CCc1nnc(NC(=O)C2CCC(CNc3c(N4CCC(C)CC4)c(=O)c3=O)CC2)s1 (centres unmarked)	28.4%
O=C(Nc1ccc(F)cc1)c1ccccc1Oc1ccc(C(F)(F)F)cc1[N+](=O)[O-]	-6.47%
CCCc1cc(=O)oc2cc(OCC(=O)NCc3cccs3)ccc12	-9.66%
COc1ccc(C(=O)On2c(-c3ccc(Br)cc3)nc3ccccc3c2=O)cc1	5.05%
Cc1onc(-c2ccccc2)c1C(=O)Nc1ccc(Cl)cn1	-1.56%
Cc1ccc2c(CN(C)Cc3ccc(OC(F)F)cc3)cc(=O)oc2c1C	-8.76%
Cn1c(=O)n(C)c2cc(C(=O)O)ccc21	-7.4%

SMILES	hERG current change (%, negative = inhibition) at 10uM
O=C(Nc1cccc(-c2ccc(N3CCOCC3)nn2)c1)c1ccc(F)cc1F	5.71%
COCCN(C(=O)COC(=O)c1nc(Cl)ccc1Cl)c1c(N)n(Cc2ccccc2)c(=O)[nH]c1=O	20.3%
COc1ccc(CN2CCOCCOCCOCCOCC2)cc1	-36%
COc1ccc(N(CC(=O)NCc2ccco2)S(C)(=O)=O)cc1OC	4.34%
c1ccc2oc(-c3ccc(Nc4nc(N5CCCCC5)nc(N5CCOCC5)n4)cc3)nc2c1	-1.32%
Fc1ccc(NC(=S)Nc2cccnc2)c(F)c1F	20.1%
C/C(Cn1cnc([N+](=O)[O-])n1)=N\NC(=O)c1ccc(O)cc1O	31.5%
COc1ccc(C(=O)N/N=C/c2ccc3cccc(O)c3n2)cc1	-3.3%
CC(=C1C(=O)c2ccccc2C1=O)N1CCN(Cc2ccccc2)CC1	-26.6%
CS(=O)(=O)c1nc(S(=O)(=O)c2ccc(Cl)cc2)c(N2CCN(CCO)CC2)s1	-18.4%
COc1cc(OC)c(C(=O)OCC(=O)N2CC(=O)Nc3ccccc32)cc1OC	28.1%
CCCOc1ccc(N2CC(C(=O)Nc3ccccc3OC)CC2=O)cc1 (centres unmarked)	-16.9%
CCCCN(CCCNC(=O)Cn1ncc2ccsc2c1=O)Cc1ccccc1	-33.2%
CC(C)C(=O)NNC(=O)c1c(O)c2ccccc2[nH]c1=O	10.3%
COc1ccc(S(=O)(=O)N2CCC(C(=O)Nc3ccc4c(c3)OCCO4)CC2)cc1OC	-4.29%
Nc1ccc(CSc2ccc(Cl)cc2)cc1	8.64%
O=C(O)COc1ccc(/C=N/NC(=O)C(O)(c2ccccc2)c2ccccc2)cc1	26%
COc1ccc(N2CCN(c3nc4ccccn4c(=O)c3C=O)CC2)cc1	-27.7%
CCOc1ccc2[nH]c3nc(SCC(=O)NC4CC4)nnc3c2c1	14.1%

SMILES	hERG current change (%, negative = inhibition) at 10uM
COc1cc(/C=C/C(=O)OC(C)C(=O)Nc2c(C)n(C)n(-c3ccccc3)c2=O)ccc1O (centres unmarked)	0.947%
CCc1sc(C(=O)N2CCCN(C)CC2)cc1Br	-11.6%
OCCC1CN(Cc2nc(-c3ccc(F)cc3)cs2)CCN1CCc1ccccc1 (centres unmarked)	-80.6%
COc1cc(/C=C/C(=O)N2CCN(C)CC2)cc(S(=O)(=O)N2CCc3ccccc32)c1OC.Cl	-7.62%
Cc1ccc(NC(=O)C2CC(=O)n3ncnc3N2)cc1 (centres unmarked)	-14.6%
CCN(CC)C(=O)c1cccc(NC(=O)c2cc(-c3ccccn3)nc3ccccc23)c1	-0.65%
CC(=O)c1cccc(NC(=O)COc2cc3oc(=O)c(CC(C)O)c(C)c3cc2Cl)c1 (centres unmarked)	-57.7%
CCC(C(=O)NCC1CCCO1)N(C(=O)CNS(=O)(=O)c1ccccc1)c1ccc(F)cc1 (centres unmarked)	4.08%
COC(=O)C1=C(C)Nc2ncnn2C1c1ccc(C)o1 (centres unmarked)	6.14%
CC(=O)c1ccc(NC(=O)CC(C)S(=O)(=O)c2ccc3c(c2)CCN3C(C)=O)cc1 (centres unmarked)	-11.4%
COc1cccc(-c2c(NC(C)=O)n(C)c3ccccc3c2=O)c1	18.3%
COc1ccc(C2CC(c3ccccc3O)=NN2C(=O)c2ccccc2)cc1OC (centres unmarked)	1.28%
O=C(CCCN1C(=O)/C(=C/c2ccccc2)SC1=S)Nc1cccc(O)c1	2.17%
NC(=O)c1c(NC(=O)c2ccncc2)sc2c1CCCCCC2	-7.5%
O/N=C(\CN1CCCCC1)c1ccccc1	13.4%
CN1CCN(C(=O)/C(=C/c2cn(C)c3ccccc23)NC(=O)c2ccccc2)CC1	14.9%
C=CCN1CCN(C(=O)CCCc2ccccc2)CC1	26.1%
Cc1oc2ccc(NS(=O)(=O)c3ccc(F)cc3)cc2c1C(=O)O	7.72%
